From the supplement of paper PMC11880418 come the findings set out here.

Structures can show the parent of a compound that is named as a salt. The list shows a part of the results. The data scatter; read single values as rough.
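Also: High-content imaging of ALDEFLUOR-stained cells with Hoechst-labelled nuclei in 384-well plates, triplicate wells, scored as Z-score against 0.1% DMSO vehicle, negative meaning fewer ALDHbr cells.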

This assay has as its system SUM159. In words: ALDHbr (CSC) cell proportion score relative to DMSO vehicle (ratio to DMSO); breast (SUM159) / gastric (MKN45) / pancreatic (PANC1) / colon cancer lines; ALDHbr cells have high ALDH activity and are rich in cancer stem cells (CSC); higher = more CSC (ALDHbr) cells remaining. The note with it: 10 µM; 72 h.
In the case of `OC(c1cc(C(F)(F)F)nc2c(C(F)(F)F)cccc12)C1CCCCN1` (stereo not given) [Mefloquine hydrochloride], the ALDHbr is 2.07.

As for `CCN(CC)CC#CCOC(=O)C(O)(c1ccccc1)C1CCCCC1` (stereo not given) [Oxybutynin chloride], the ALDHbr is 0.835.

As for `CC(c1cc2ccccc2s1)N(O)C(N)=O` (stereo not given) [Zileuton], the ALDHbr amounted to 0.972.

Consider `C[C@@H](O)[C@H]1C(=O)N2C(C(=O)O)=C(S[C@@H]3CN[C@H](C(=O)N(C)C)C3)[C@H](C)[C@H]12` [Meropenem], for which the ALDHbr stood at 0.835.

As to `COc1ccc(C[C@@H]2c3cc(OC)c(OC)cc3CC[N@+]2(C)CCC(=O)OCCCCCOC(=O)CC[N@@+]2(C)CCc3cc(OC)c(OC)cc3[C@H]2Cc2ccc(OC)c(OC)c2)cc1OC` [Cisatracurium besylate], the ALDHbr was found to be 0.314.

With `CC(CCc1ccccc1)NCC(O)c1ccc(O)c(C(N)=O)c1` (stereo not given) [Labetalol hydrochloride], the ALDHbr is 1.41.

For `CC1=C(C(=O)O)N2C(=O)[C@@H](NC(=O)[C@H](N)c3ccc(O)cc3)[C@H]2SC1` [Cefadroxil], the ALDHbr worked out at 0.841.

For `Clc1ccc(CCC(Cn2ccnc2)Sc2c(Cl)cccc2Cl)cc1` (stereo not given) [Butoconazole nitrate], the ALDHbr was 1.47.

With `CCC[C@@H]1C[C@@H](C(=O)N[C@@H]([C@H]2O[C@H](SC)[C@H](O)[C@@H](O)[C@H]2O)[C@@H](C)O)N(C)C1` [Lincomycin hydrochloride], the ALDHbr came to 1.08.

As for `Cc1ccsc1/C=C/C1=NCCCN1C` [Morantel tartrate], the ALDHbr was 1.07.

As for `N#Cc1cc(NC(=O)C(=O)O)c(Cl)c(NC(=O)C(=O)O)c1` [Lodoxamide], the ALDHbr was found to be 0.913.

On to `CC(C)c1ccc2oc3nc(N)c(C(=O)O)cc3c(=O)c2c1` [Amlexanox], for which the ALDHbr amounted to 1.

On to `CC(C)(S)C(N)C(=O)O` (racemic) [D,L-Penicillamine], for which the ALDHbr turned out to be 1.04.

In the case of `CC(C)NCC(O)c1ccc(NS(C)(=O)=O)cc1` (stereo not given) [Sotalol hydrochloride], the ALDHbr came out at 1.18.

As for `Cc1oncc1C(=O)Nc1ccc(C(F)(F)F)cc1` [Leflunomide], the ALDHbr turned out to be 1.94.

On to `Cc1ccc(Cl)c(Nc2ccccc2C(=O)O)c1Cl` [Meclofenamic acid sodium salt monohydrate], for which the ALDHbr amounted to 0.996.

As to `CC12CC3CC(C)(C1)CC(N)(C3)C2` [Memantine Hydrochloride], the ALDHbr came out at 0.822.

Turning to `O=C(COc1ccc(Cl)cc1)N1CCN(Cc2ccc3c(c2)OCO3)CC1` [Fipexide hydrochloride], the ALDHbr was found to be 1.2.

As to `CC(=O)Oc1ccccc1C(=O)O` [Acetylsalicylic acid], the ALDHbr is 0.995.

`CN1C(C(=O)Nc2ccccn2)=C(O)c2ccccc2S1(=O)=O` [Piroxicam]: the ALDHbr is 1.05.

For the molecule `c1ccc(CNc2ncnc3nc[nH]c23)cc1` [Aminopurine, 6-benzyl], the ALDHbr was found to be 0.874.

As to `COc1cccc(OC)c1C(=O)N[C@@H]1C(=O)N2[C@@H]1SC(C)(C)[C@@H]2C(=O)O` [Methicillin sodium], the ALDHbr is 0.907.

Take `Cc1ccccc1C(=O)Nc1ccc(C(=O)N2CCCC(O)c3cc(Cl)ccc32)c(C)c1` (stereo not given) [Tolvaptan]: the ALDHbr was determined as 1.32.

On to `COc1ccc2c3c1O[C@H]1C[C@@H](O)C=C[C@@]31CCN(C)C2` [Galanthamine hydrobromide], for which the ALDHbr stood at 1.09.

`CCCCOc1cc(C(=O)NCCN(CC)CC)c2ccccc2n1` [Dibucaine]: the ALDHbr came out at 1.01.

On to `Cc1ccc2c(c1)c1c3n2CCNC3CCC1` (stereo not given) [Pirlindole mesylate], for which the ALDHbr worked out at 0.661.

As to `CCCCc1cc2ccccc2c(OCCN(C)C)n1` [Dimethisoquin hydrochloride], the ALDHbr worked out at 0.647.

In the case of `CN[C@@H]1[C@@H](O)[C@@H](O[C@@H]2[C@@H](O)[C@H](O[C@H]3OC(CN)=CC[C@H]3N)[C@@H](N)C[C@H]2N)OC[C@]1(C)O` [Sisomicin sulfate], the ALDHbr was determined as 1.06.

For `CCCCCN(C)CCC(O)(P(=O)(O)O)P(=O)(O)O` [Ibandronate sodium], the ALDHbr was found to be 1.

Turning to `CO[C@H]1/C=C/O[C@@]2(C)Oc3c(C)c(O)c4c(O)c(c(/C=N/N5CCN(C)CC5)c(O)c4c3C2=O)NC(=O)/C(C)=C\C=C\[C@H](C)[C@H](O)[C@@H](C)[C@@H](O)[C@@H](C)[C@H](OC(C)=O)[C@@H]1C` [Rifampicin], the ALDHbr turned out to be 0.811.

On to `C[C@@H]1CN(c2c(F)c(N)c3c(=O)c(C(=O)O)cn(C4CC4)c3c2F)C[C@H](C)N1` [Sparfloxacin], for which the ALDHbr came out at 0.773.

For `CCN(CC)C(=O)N1CCN(C)CC1` [Diethylcarbamazine citrate], the ALDHbr stood at 1.02.

As for `Nc1cc(C(Cl)=C(Cl)Cl)c(S(N)(=O)=O)cc1S(N)(=O)=O` [Clorsulon], the ALDHbr amounted to 1.24.

In the case of `CN1C(=O)OC(C)(C)C1=O` [Trimethadione], the ALDHbr was 1.01.

Consider `CO[C@@]1(NC(=O)Cc2cccs2)C(=O)N2C(C(=O)O)=C(COC(N)=O)CS[C@@H]21` [Cefoxitin sodium salt], for which the ALDHbr worked out at 0.817.

On to `CC1CCc2cc(F)cc3c(=O)c(C(=O)O)cn1c23` (stereo not given) [Flumequine], for which the ALDHbr worked out at 0.97.

Take `CCOC(=O)O[C@]1(C(=O)OCCl)CC[C@H]2[C@@H]3CCC4=CC(=O)C=C[C@]4(C)[C@H]3[C@@H](O)C[C@@]21C` [Loteprednol etabonate]: the ALDHbr worked out at 0.683.

As for `CC(C)OC(=O)CCC/C=C\C[C@@H]1[C@@H](CC[C@@H](O)CCc2ccccc2)[C@H](O)C[C@@H]1O` [Latanoprost], the ALDHbr worked out at 1.23.

`Cc1cn([C@H]2C[C@H](N=[N+]=[N-])[C@@H](CO)O2)c(=O)[nH]c1=O` [Zidovudine, AZT]: the ALDHbr was 1.15.

Regarding `CC(C)(C)NCC(O)COc1cccc2c1CC(O)C(O)C2` (stereo not given) [Nadolol], the ALDHbr came out at 0.9.
